According to the supplement of paper PMC4967469:
IC50 is the fitted dose that halves viability relative to control wells, and lower means more sensitive; a limit (>, <) means that the fit lies beyond the doses tested. The AUC spans the tested range (256-fold, ending at the top dose) of the same fit; it is 1 without any effect and falls as sensitivity rises. For some assays here: Where the top dose is marked as inferred, it was calculated from the reported fits.

How the values were obtained:
Assay in all cases: Viability of human cancer cell lines after 72 h of drug (GDSC screen)
UNC1215 = compound: O=C(c1ccc(C(=O)N2CCC(N3CCCC3)CC2)c(Nc2ccccc2)c1)N1CCC(N2CCCC2)CC1 [UNC1215]; conditions: top dose 1 µM; top dose inferred
Protocol: (§1)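 Human cancer cell lines in 384-well plates, medium with 10% serum, drug for 72 h over a 256-fold dose range (nine 2-fold or five 4-fold steps up to the top dose). Adherent lines were fixed and stained with the nucleic acid dye Syto60, suspension lines read with resazurin; signal relative to control wells, capped at 0 and 100%. One two-parameter sigmoid per drug and line, fitted in a mixed model over all curves with the slope shared within a line.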

CCT018159 = compound: CCc1cc(-c2n[nH]c(C)c2-c2ccc3c(c2)OCCO3)c(O)cc1O [CCT018159]; conditions: top dose 10 µM; top dose inferred
Protocol: as §1

TG101348 = compound: Cc1cnc(Nc2ccc(OCCN3CCCC3)cc2)nc1Nc1cccc(S(=O)(=O)NC(C)(C)C)c1 [TG101348]; conditions: top dose 10.24 µM
Protocol: as §1

Dimethyloxalylglycine = compound: COC(=O)CNC(=O)C(=O)OC [Dimethyloxalylglycine]; conditions: top dose 4000 µM; top dose inferred
Protocol: as §1

BIX02189 = compound: CN(C)Cc1cccc(N=C(c2ccccc2)c2c(O)[nH]c3cc(C(=O)N(C)C)ccc23)c1 [BIX02189]; conditions: top dose 20 µM; top dose inferred
Protocol: as §1

17-AAG = compound: C=CCNC1=C2C[C@@H](C)C[C@H](OC)[C@H](O)[C@@H](C)/C=C(\C)[C@H](OC(N)=O)[C@@H](OC)/C=C\C=C(/C)C(=O)NC(=CC1=O)C2=O [17-AAG]; conditions: top dose 1 µM
Protocol: as §1

VX-11e = compound: Cc1cnc(Nc2ccc(F)cc2Cl)nc1-c1c[nH]c(C(=O)N[C@H](CO)c2cccc(Cl)c2)c1 [VX-11e]; conditions: top dose 5.12 µM; top dose inferred
Protocol: as §1

Vismodegib = compound: CS(=O)(=O)c1ccc(C(=O)Nc2ccc(Cl)c(-c3ccccn3)c2)c(Cl)c1 [Vismodegib]; conditions: top dose 10 µM; top dose inferred
Protocol: as §1

OSI-027 = compound: COc1cccc2cc(-c3nc([C@H]4CC[C@H](C(=O)O)CC4)n4ncnc(N)c34)[nH]c12 [OSI-027]; conditions: top dose 20 µM
Protocol: as §1

Doxorubicin = compound: COc1cccc2c1C(=O)c1c(O)c3c(c(O)c1C2=O)C[C@@](O)(C(=O)CO)C[C@@H]3O[C@H]1C[C@H](N)[C@H](O)[C@H](C)O1 [Doxorubicin]; conditions: top dose 1.024 µM
Protocol: as §1

Cell Line | AUC (UNC1215) | IC50 (UNC1215) | AUC (CCT018159) | IC50 (CCT018159) | AUC (TG101348) | IC50 (TG101348) | AUC (Dimethyloxalylglycine) | IC50 (Dimethyloxalylglycine) | AUC (BIX02189) | IC50 (BIX02189) | AUC (17-AAG) | IC50 (17-AAG) | AUC (VX-11e) | IC50 (VX-11e) | AUC (Vismodegib) | IC50 (Vismodegib) | AUC (OSI-027) | IC50 (OSI-027) | AUC (Doxorubicin) | IC50 (Doxorubicin)
L-1236 (Hodgkin lymphoma, suspension) | 0.987 | > 1000 nM | 0.902 | 9.46 µM | 0.674 | 1800 nM | 0.803 | 1630 µM | 0.955 | > 20 µM | 0.745 | 274 nM | 0.992 | > 5.12 µM | 0.992 | > 10 µM | 0.404 | 714 nM | 0.878 | 761 nM
C3A (liver, adherent) | 0.987 | > 1000 nM | 0.867 | 9.65 µM | 0.988 | > 10200 nM | 0.405 | 136 µM | 0.988 | > 20 µM | 0.797 | 495 nM | 0.988 | > 5.12 µM | 0.988 | > 10 µM | 0.986 | > 20000 nM | 0.786 | 461 nM
TE-11 (oesophagus, adherent) | 0.989 | > 1000 nM | 0.878 | 8.6 µM | 0.958 | > 10200 nM | 0.593 | 439 µM | 0.99 | > 20 µM | 0.569 | 95 nM | 0.99 | > 5.12 µM | 0.987 | > 10 µM | 0.973 | > 20000 nM | 0.706 | 230 nM
KMOE-2 (acute myeloid leukaemia, suspension) | 0.984 | > 1000 nM | 0.91 | > 10 µM | 0.731 | 2670 nM | 0.435 | 169 µM | 0.938 | > 20 µM | 0.966 | > 1000 nM | 0.648 | 0.78 µM | 0.985 | > 10 µM | 0.252 | 267 nM | 0.789 | 401 nM
KNS-81-FD (glioma, adherent) | 0.978 | > 1000 nM | 0.869 | > 10 µM | 0.96 | > 10200 nM | 0.681 | 968 µM | 0.965 | > 20 µM | 0.665 | 213 nM | 0.978 | > 5.12 µM | 0.955 | > 10 µM | 0.861 | > 20000 nM | 0.628 | 164 nM
SW756 (cervix, adherent) | 0.983 | > 1000 nM | 0.888 | > 10 µM | 0.985 | > 10200 nM | 0.402 | 127 µM | 0.984 | > 20 µM | 0.764 | 430 nM | 0.978 | > 5.12 µM | 0.981 | > 10 µM | 0.909 | > 20000 nM | 0.733 | 339 nM
OVMIU (ovary, adherent) | 0.978 | > 1000 nM | 0.86 | > 10 µM | 0.686 | 2440 nM | 0.872 | > 4000 µM | 0.926 | > 20 µM | 0.788 | 561 nM | 0.79 | 2.92 µM | 0.971 | > 10 µM | 0.288 | 268 nM | 0.621 | 150 nM
PC-3 [JPC-3] (lung adenocarcinoma, adherent) | 0.979 | > 1000 nM | 0.884 | > 10 µM | 0.831 | 9670 nM | 0.285 | 49.9 µM | 0.957 | > 20 µM | 0.94 | > 1000 nM | 0.957 | > 5.12 µM | 0.98 | > 10 µM | 0.461 | 944 nM | 0.769 | 516 nM
PCI-15A (head and neck, adherent) | 0.979 | > 1000 nM | 0.881 | > 10 µM | 0.908 | > 10200 nM | 0.905 | > 4000 µM | 0.98 | > 20 µM | 0.823 | 598 nM | 0.987 | > 5.12 µM | 0.98 | > 10 µM | 0.687 | 4190 nM | 0.645 | 161 nM
NCI-H661 (large cell lung carcinoma, adherent) | 0.967 | > 1000 nM | 0.875 | > 10 µM | 0.874 | > 10200 nM | 0.801 | 2440 µM | 0.98 | > 20 µM | 0.72 | 303 nM | 0.918 | > 5.12 µM | 0.981 | > 10 µM | 0.724 | 6250 nM | 0.454 | 46.7 nM
HuCCT1 (biliary tract, adherent) | 0.982 | > 1000 nM | 0.865 | > 10 µM | 0.889 | > 10200 nM | 0.476 | 213 µM | 0.925 | > 20 µM | 0.737 | 325 nM | 0.952 | > 5.12 µM | 0.984 | > 10 µM | 0.268 | 249 nM | 0.529 | 77.7 nM
OCI-M1 (acute myeloid leukaemia, suspension) | 0.991 | > 1000 nM | 0.993 | > 10 µM | 0.123 | 65.5 nM | 0.77 | 1190 µM | 0.955 | > 20 µM | 0.987 | > 1000 nM | 0.839 | 2.37 µM | 0.994 | > 10 µM | 0.062 | < 78.1 nM | 0.664 | 162 nM
JM1 (B-cell lymphoma, suspension) | 0.979 | > 1000 nM | 0.963 | > 10 µM | 0.691 | 2000 nM | 0.299 | 74.9 µM | 0.905 | > 20 µM | 0.977 | > 1000 nM | 0.987 | > 5.12 µM | 0.984 | > 10 µM | 0.324 | 436 nM | 0.428 | 42 nM
